Source: the supplement of paper PMC12645437, “Orthogonal IMiD-Degron Pairs Induce Selective Protein Degradation in Cells” (ACS Chemical Biology, 2025)
The list shows a part of the results.

Target: no compound (DMSO)
Experiment: log2 fold change of degron read counts, EGFP-low vs EGFP+ sorted cells; higher = lower degron-EGFP level without compound (poor expression or instability)
Conditions: compound: DMSO control; 18 h
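Note: jurkat cells carrying a lentiviral library of mutant zinc finger degrons fused to EGFP plus mCherry, mCherry+ cells FACS sorted, degron abundance counted by next-generation sequencing.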

Row | Sequence | log2 fold change of degron read counts
1 | LKCNQCGFNCTQKGNLLRHIKL | 1.3
2 | FMCPICGAPFTQKGNLLRHIKL | 0.604
3 | FLCNQCGRWFTQKGNLLRHIKL | 0.928
4 | FRCDICGAEFTQKGNLLRHIKL | -2.11
5 | FDCPICGHWFTQKGNLLRHIKL | 0.237
6 | FDCPICGRCFTQKGNLLRHIKL | -0.362
7 | FKCPQCGARFTQKGNLLRHIKL | -0.361
8 | FWCNQCGHIFTQKGNLLRHIKL | 1.99
9 | FFCPVCGASFTQKGNLLRHIKL | 0.293
10 | FKCSVCGHHFTQKGNLLRHIKL | -0.0877
11 | LQCPICGFSCTQKGNLLRHIKL | 0.126
12 | FYCPQCGAYFTQKGNLLRHIKL | 0.58
13 | FHCEVCGAVFTQKGNLLRHIKL | -1.44
14 | FACPICGAEFTQKGNLLRHIKL | -0.363
15 | FHCNQCGHMFTQKGNLLRHIKL | 0.467
16 | FCCNQCGANFTQKGNLLRHIKL | -0.619

Row | Sequence | log2 fold change of degron read counts
17 | FLCEICGRWFTQKGNLLRHIKL | -0.057
18 | FHCPQCGAPFTQKGNLLRHIKL | -0.753
19 | FCCEQCGAMFTQKGNLLRHIKL | -1.98
20 | FFCPICGRDFTQKGNLLRHIKL | -0.25
21 | FLCNICGAPFTQKGNLLRHIKL | -0.178
22 | FECNICGAMFTQKGNLLRHIKL | -1.71
23 | FNCDQCGAGFTQKGNLLRHIKL | -0.617
24 | FACDICGAWFTQKGNLLRHIKL | -0.538
25 | FICPVCGAEFTQKGNLLRHIKL | -0.436
26 | FSCPICGHNFTQKGNLLRHIKL | -0.388
27 | FRCDICGAHFTQKGNLLRHIKL | -0.93
28 | FTCNQCGHSFTQKGNLLRHIKL | -0.549
29 | FSCEICGRTFTQKGNLLRHIKL | -1.96
30 | FLCEVCGAKFTQKGNLLRHIKL | -1.57
31 | LTCPICGFCCTQKGNLLRHIKL | 0.833
32 | FCCEQCGALFTQKGNLLRHIKL | -2.18
